# Assay results from article PMC12136788.
# The list shows a part of the results.
# T1: UNK ZnF1-3 (human, UniProt Q9C0B0 31-174)
# T1 sequence: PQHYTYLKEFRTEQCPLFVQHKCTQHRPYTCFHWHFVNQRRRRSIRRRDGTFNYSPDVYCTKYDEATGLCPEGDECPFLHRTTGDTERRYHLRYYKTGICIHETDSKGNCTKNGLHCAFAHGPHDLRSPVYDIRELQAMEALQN
# B1: 90695599_90699647_638_3pUTR_ENSMUSG00000027282_ENSMUST00000136872|mouse|control|control (ssRNA)
# RNA: GGGAGUUCUACAGUCCGACGAUCCGAGGAAUGAGACCCGCAAAAAAUCCUACGAUGCCUUCUUCCCGGUAGAUGGUUACUAUGGAGUCACACAGUCCACAGUACUUAGACUCUCUGCCAAUAAACUGUACCAUGGACCUCAGACAACAGAGGAUUGAGCAUCA
# B2: chr3:9412954:9412955:+_ENSG00000134077_ENST00000452837|hu_mus|hu_hu_hu_mus_False|28_38 (ssRNA)
# RNA: GGGAGUUCUACAGUCCGACGAUCGGUUGAUAUCUCUUCUUUGAUGGCUGGAUUUUCAUAAUAGUCCAAGAUAUGUGAAUCUGAAGUGCUGCUGGCAAACUCUUUUUUAACAUUUCUCUCAUCUGCUUUGUCUCCUUGUCCACACAACAGAGGAUUGAGCAUCA
# B3: chr11:74490848:74490849:-_ENSMUSG00000020745_ENSMUST00000021091|mus_mus|motif|central (ssRNA)
# RNA: GGGAGUUCUACAGUCCGACGAUCACAGAUAGCAGGAAGAAAAACAGUAAUUAAUAAUCCAACAUAAAAUGACACUGUCAACGGUUCAGUUUAGUGCCCUAGUUCAAUUUAUUUAACUUCUGCCCUUGUAGGCCUGGUGUGACCCAACAGAGGAUUGAGCAUCA
# B4: chr9:31209820:31209821:+_ENSMUSG00000042185_ENSMUST00000086167|mus_mus|motif|central (ssRNA)
# RNA: GGGAGUUCUACAGUCCGACGAUCAUUUUCCUUACAGAAGGCCUGGUCUUUGGUUUCCAGCCACAGGUGGAAGAGAGCAGCGGAUUCCUUUUCAUUAUCUUGAGAUUGACCAAGCAAUUUCCACUGCUGGGUUUUCUCUUUGAACAACAGAGGAUUGAGCAUCA
# B5: 91020203_91021877_1494_CDS_ENSMUSG00000030091_ENSMUST00000032179|mouse|control|control (ssRNA)
# RNA: GGGAGUUCUACAGUCCGACGAUCCAUGACCCCCUUGACGGUGACUGUGGCAACCAUGGAGCUUGACGAAGACCAGCUGAAGUUCCCACUGCCCCCAUGGGCCUUUAUGGUAUACUGAUAGGCGCCUGUCUUUGGUUGCCAUGGCAACAGAGGAUUGAGCAUCA
# B6: chr4:128986876:128986877:-_ENSMUSG00000057236_ENSMUST00000102598|mus_hu|motif|central (ssRNA)
# RNA: GGGAGUUCUACAGUCCGACGAUCCUGCUGGUGAAACAGGUCACCCAAAAUGGAGAUGGCAUCAAACUAGUGGUCAAGGACGGACUCCAUUUGCCACACUUGCAUGAUAUUGUCUUCUGAUACAGAACAAAUCACCCAAGGUUCCAACAGAGGAUUGAGCAUCA
# B7: chr2:198367945:198367946:+_ENSG00000115541_ENST00000409468|hu_hu|FALSE|FALSE (ssRNA)
# RNA: GGGAGUUCUACAGUCCGACGAUCGCCAUUUCAAUAGUGACUUAUUUCAGUCUACGUACUUUCCAAGAAUGUCACCAUCUCUAAAUAGGAAAUAAUCCUGCAAGUGAAAAAAACCAUUAGUUAAGACAACUAAUUGCAAAUAUCCAACAGAGGAUUGAGCAUCA
# B8: chr16:94645698:94645699:+_ENSMUSG00000040785_ENSMUST00000117648|mus_hu|FALSE|FALSE (ssRNA)
# RNA: GGGAGUUCUACAGUCCGACGAUCAUAUCCAUGGCACUUCUGAUAGCAACAAAUGGCAUCUGGCACUGGAGGGAACUUGCAUUCUUCAACAAAUUUCUCUAACAGCAUCUUUAUUUUUUGUGGCUGAGACUCUUCAAUAAUCACCAACAGAGGAUUGAGCAUCA
# B9: chr5:146773622:146773623:-_ENSG00000113657_ENST00000343218|hu_mus|FALSE|FALSE (ssRNA)
# RNA: GGGAGUUCUACAGUCCGACGAUCUCUUGCUUCUGCCUCCCUCUUUGGGAGGGCUUAACUCAGGGAUGUGAUGUUAGAACGGCCUCCAGGGGGUGCCACAAUGCGUUUGCUAGCUGAGCGGACACCCUCAUCCACUUGGGUGCCCAACAGAGGAUUGAGCAUCA
# B10: chr17:88987509:88987510:+_ENSMUSG00000034709_ENSMUST00000038551|mus_hu|FALSE|FALSE (ssRNA)
# RNA: GGGAGUUCUACAGUCCGACGAUCAAGAGAGAGAGAGAGAGAGAGAGAGAGAGAGAAAUAUGAACAAAUCUUUUAAAAAGAAUCUGGAGAAUGCCUUCAACUAUAAUAAGAAGUAAUGACAGUUUGACAAUUUAAGCAUUUUUUCAACAGAGGAUUGAGCAUCA
# B11: chr15:90999404:90999405:+_ENSG00000140575_ENST00000268182|hu_mus|FALSE|FALSE (ssRNA)
# RNA: GGGAGUUCUACAGUCCGACGAUCCUGCAGAGUCUUCUGAGCGUCCCCUUCAUCCAGGGCUUCAUUAAUCAAGCCGAUGGCCAAAAUCCGCUCAUGCUCCUCAUGGACCACCAGGUUCACAUGGUCCACACACGCCUGGAUGUCCAACAGAGGAUUGAGCAUCA
# B12: chr6:41757443:41757444:+_ENSG00000214736_ENST00000398881|hu_mus|hu_hu_hu_mus_False|28_68 (ssRNA)
# RNA: GGGAGUUCUACAGUCCGACGAUCGAACCGUGCAGAGGCAACAUCUCAGCCGACACUGGGGGAUGGGGGAACAAAAGGGGGGGGUUCAGGCAAGGAGAGGGAGUCAACCCAUCUGAACACUCAGGUAGGAUCUUGUGGUCACAGCAACAGAGGAUUGAGCAUCA
# B13: chr2:52995849:52995850:-_ENSMUSG00000061136_ENSMUST00000076313|mus_mus|motif|central (ssRNA)
# RNA: GGGAGUUCUACAGUCCGACGAUCAAGAGUCAGAAAUUUAGGACUGCCCCAUCACCUGUGCCUUCAUACUACGUCGGGCAACGGCAAUGUGUCUGAUGGUAUAAUCAAAACAAGACAAUAGAGUAGACUGGAUUUACAUGUUUUCAACAGAGGAUUGAGCAUCA
# B14: 37245145_37245265_1605_CDS_ENSMUSG00000075376_ENSMUST00000100143|mouse|control|control (ssRNA)
# RNA: GGGAGUUCUACAGUCCGACGAUCAUUAGUGCCAACCUUCCCGACUUUCUUCACAGUCUCCAAAGUCCUUACUGCACUGUCAGUGCCUCGUGGGAUUAGCUGAGAAACACUGCUUUCUGUAUUUGAAAUUCCAUUUGUACUUGCCAACAGAGGAUUGAGCAUCA
# Target: T1, UNK ZnF1-3
# Assay: nsRBNS (natural sequence RNA bind-n-seq); RBNS binding buffer (assumed for nsRBNS): 25 mM Tris pH 7.5, 150 mM KCl, 3 mM MgCl2, 0.01% Triton X-100, 500 ug/ml BSA, 20 U/ml SUPERase-In, 4 C; UNK is unkempt and MSI1 is Musashi-1; names of the RNAs are library labels; protein concentration not given here; high values mean tight binding
row,Binder,binding signal [enrichment R]
1,B1,1.33
2,B2,0.522
3,B3,1.31
4,B4,0.429
5,B5,0.642
6,B6,1.23
7,B7,0.825
8,B8,1.61
9,B9,0.61
10,B10,1.67
11,B11,0.695
12,B12,2.49
13,B13,0.584
14,B14,0.763
